Source: PubChem BioAssay AID2147 (National Center for Advancing Translational Sciences (NCATS), 2009)
About 3,600 (1.6%) of roughly 230,000 compounds were called active. The shares of active, inactive and inconclusive entries below differ from those in the screen. Calls follow the shape of the dose curve; as a rule, active = well fitted inhibition curve with a large enough effect (not every such curve was filed as active); inconclusive = small, poorly fitted or top-dose-only effect, or another doubt; inactive = no such curve, though single readings can be large or run the other way. Potencies beside an inconclusive call are fits to weak or partial responses and may not hold up.

Each compound was assayed against Lysine-specific demethylase 4E (Homo sapiens) (UniProt B2RXH2) (assay: qHTS Assay for Inhibitors of Human Jumonji Domain Containing 2E (JMJD2E)). Conditions: JMJD2E catalytic domain, FDH-coupled NADH fluorescence (FDH is formaldehyde dehydrogenase); series mostly up to 57.1 µM.
UniProt B2RXH2, sequence (B2RXH2 whole entry, looked up, the tested form may be a part): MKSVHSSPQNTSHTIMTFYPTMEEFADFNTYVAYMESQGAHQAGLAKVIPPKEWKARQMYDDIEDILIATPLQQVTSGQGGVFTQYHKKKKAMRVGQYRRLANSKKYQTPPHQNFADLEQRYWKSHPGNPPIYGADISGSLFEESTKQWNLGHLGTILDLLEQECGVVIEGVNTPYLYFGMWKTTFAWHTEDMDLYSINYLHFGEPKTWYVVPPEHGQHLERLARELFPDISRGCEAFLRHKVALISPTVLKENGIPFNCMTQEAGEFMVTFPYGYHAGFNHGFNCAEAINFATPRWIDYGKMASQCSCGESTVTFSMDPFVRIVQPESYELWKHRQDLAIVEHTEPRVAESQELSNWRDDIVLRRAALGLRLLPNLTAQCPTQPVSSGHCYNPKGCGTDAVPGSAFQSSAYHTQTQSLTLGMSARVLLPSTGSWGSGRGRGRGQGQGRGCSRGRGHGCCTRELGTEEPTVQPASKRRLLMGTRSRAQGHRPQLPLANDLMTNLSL
Also: nearly all actives have a fitted effect of over 50% in size.
Potency is read from the fitted curve at half-maximal effect; tags tell the direction and shape of the fitted curve.

SMILES	Potency
COc1ccc(NC(=S)N2CCC(N(C)CC3CCCO3)CC2)cc1Cl (stereo unspecified)	inactive
C#CCOC(=O)Nc1cccn(Cc2c(Cl)cccc2Cl)c1=O	inconclusive: 35.5 µM [inhibitor, single point]
CC(=O)c1cccc(-n2c(CCC(=O)O)ccc2-c2cccs2)c1	inactive
COc1ccc(C2C(C(=O)NCC3CCCO3)CCC(=O)N2c2ccc3c(c2)OCO3)cc1 (stereo unspecified)	inactive
COCC(C)NC(=O)c1cc(-c2ccccc2OC)on1 (stereo unspecified)	inconclusive: 39.8 µM [inhibitor, single point]
CCSc1ccc(-c2nn(-c3ccccc3)cc2/C=C(/C#N)C(=O)NC)cc1	inconclusive: 4.47 µM [inhibitor, full curve]
FC(F)(F)c1nc2ccccc2n2c(-c3ccc(Cl)cc3Cl)nnc12	inconclusive: 25.1 µM [inhibitor, partial curve]
Oc1ccc(N=Nc2nc(-c3ccccc3)c(-c3ccccc3)[nH]2)cc1	inactive
CCOC(=O)c1[nH]c2ccccc2c1NC(=O)NC(C)C	inconclusive: 31.6 µM [inhibitor, partial curve]
Cc1ccc(C)c(S(=O)(=O)N2CCCOC2CNC(=O)C(=O)NCc2cccnc2)c1 (stereo unspecified)	inactive
COc1ccc(Cl)cc1N1C(=O)C2CCCN2C1c1ccc(F)cc1 (stereo unspecified)	inactive
CC(=O)n1c2ccccc2c2c1c1ccccc1n2C	inconclusive: 22.4 µM [inhibitor, partial curve]
COc1cc2c(cc1OC)-c1n[nH]c(=S)n1C(C)(C)C2	inconclusive: 39.8 µM [inhibitor, single point]
CCOC(=O)c1c(NC(=O)c2ccoc2C)sc(C(=O)N(C)C)c1C	inconclusive: 39.8 µM [inhibitor, single point]
O=C(NCc1ccc(F)cc1)C1CCCN(c2nc3ccsc3c(=O)s2)C1 (stereo unspecified)	inconclusive: 12.6 µM [inhibitor, partial curve]
COC(=O)CSc1nnc([C@H](Cc2ccccc2)NC(=O)OC(C)(C)C)o1	inactive
CCCc1cc(=O)oc2c(CN(CC)CC)c(O)c(Cl)cc12	inconclusive: 10 µM [inhibitor, partial curve]
Cc1nn(C)c(C)c1CN(C)C(=O)c1cc2nc(-c3ccco3)cc(C(F)(F)F)n2n1	inconclusive: 35.5 µM [inhibitor, single point]
C#CCNC(=O)C1=C[C@H](c2ccc3c(c2)OCO3)C[C@H](OCc2ccc(CO)cc2)O1	inactive
O=C(Nc1ccccc1)Nc1nnc(-c2cccs2)s1	inconclusive: 28.2 µM [inhibitor, partial curve]
COCCCn1c2nc3ccccc3nc2c2c(=O)n(Cc3ccc(Cl)cc3)cnc21	inconclusive: 8.91 µM [inhibitor, partial curve]
COc1cc(/C=C/c2ccc(O)cc2)cc(OC)c1	inconclusive: 25.1 µM [inhibitor, partial curve]
CCC1Oc2ccc(C)cc2N(CC(=O)N(Cc2ccncc2)Cc2ccco2)C1=O (stereo unspecified)	inconclusive: 25.1 µM [inhibitor, single point]

SMILES	Potency
O=[N+]([O-])c1ccc(Sc2nc3ccccc3o2)c([N+](=O)[O-])c1	inactive
CCCn1c(CCC(=O)O)ccc1-c1ccccc1	inconclusive: 25.1 µM [inhibitor, partial curve]
O=C(CN1CCc2ccccc2C1)Nc1cc(S(=O)(=O)N2CCOCC2)ccc1N1CCCC1	inconclusive: 39.8 µM [inhibitor, single point]
O=C(c1cccs1)N1CCN(Cc2cccnc2)CC1	inconclusive: 35.5 µM [inhibitor, single point]
COc1ccc(C(=O)NCCc2cn3ccc(C)cc3n2)cc1	inconclusive: 35.5 µM [inhibitor, single point]
CCOC(=O)N1CCC(n2c(SCC(=O)N3CCCC3)nc3ccccc3c2=O)CC1	inactive
CN(Cc1ccccc1)C(=O)CCSc1nc(-c2ccc3c(c2)OCO3)cc(C(F)(F)F)n1	inconclusive: 28.2 µM [inhibitor, partial curve]
CC(C)CC(=O)Nc1ccnc(-c2ccncc2)n1	inactive
CCC(=O)Nc1ccc(C(=O)Nc2ccc3c(c2)C(=O)N(CC2CCCO2)C3=O)cc1 (stereo unspecified)	inconclusive: 35.5 µM [inhibitor, single point]
Cc1ccc2nc(NCCCNC(=O)c3cnccn3)c(C#N)cc2c1	inconclusive: 31.6 µM [inhibitor, partial curve]
CCC(=O)Nc1ccc(Cl)c(NC(=O)c2c(OC)cccc2OC)c1	inactive
O=c1c2ccccc2nc(COc2ccccc2)n1/N=C/c1cc([N+](=O)[O-])ccc1O	inactive
C/C(=N/NC(N)=S)c1ccccc1[N+](=O)[O-]	inactive
COc1ccccc1N1N=C(c2cccs2)CC1c1ccccc1 (stereo unspecified)	inconclusive: 14.1 µM [inhibitor, partial curve]
c1ccc(Oc2cccc(CN3CCOCC3)c2)cc1	inconclusive: 6.31 µM [inhibitor, single point]
COc1ccc(-c2cc(C(F)(F)F)nc(SCC(=O)N3CCOCC3)n2)cc1OC	inconclusive: 31.6 µM [inhibitor, partial curve]
O=C(CCNc1cccc(Cl)c1)c1cccs1	inactive
CC(=O)OC1C[C@]2(C)[C@@H](CC(O)C3[C@]4(C)CCC(O)C(C)[C@@H]4CC[C@]32C)/C1=C(/CCC=C(C)C)C(=O)O (stereo partly specified)	inactive
COc1ccc(-c2oc3ccc(C)cc3c(=O)c2O)cc1OC	inconclusive: 5.01 µM [inhibitor, full curve, poor fit]
COc1ccc(-c2nnc(-c3cccs3)o2)cc1OC	inconclusive: 28.2 µM [inhibitor, partial curve]
COc1cccc(/C=N\NC(=O)Cn2nnc3ccccc32)c1O	active: 28.2 µM
NC(=O)COC(=O)c1c2c(nc3ccccc13)CCCCC2	inconclusive: 25.1 µM [inhibitor, partial curve]
O=C(Nc1cccc(C(F)(F)F)c1)Oc1ccc(Cl)c2cccnc12	inconclusive: 39.8 µM [inhibitor, single point]
